{
  "source": "paper PMC4336329",
  "about": "(PLoS ONE, 2015)",
  "note": "About 14,000 (4.5%) of roughly 310,000 compounds showed an effect of 50% or more. The effect is printed as a negative number. The list shows a part of the results.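 Also: peak tail current of the secondary pulse compared with the same well before compound.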",
  "data": [
    {"target": "human ether-à-go-go-related gene (hERG) potassium channel (human, UniProt Q12809)", "sequence (Q12809 whole entry, looked up)": "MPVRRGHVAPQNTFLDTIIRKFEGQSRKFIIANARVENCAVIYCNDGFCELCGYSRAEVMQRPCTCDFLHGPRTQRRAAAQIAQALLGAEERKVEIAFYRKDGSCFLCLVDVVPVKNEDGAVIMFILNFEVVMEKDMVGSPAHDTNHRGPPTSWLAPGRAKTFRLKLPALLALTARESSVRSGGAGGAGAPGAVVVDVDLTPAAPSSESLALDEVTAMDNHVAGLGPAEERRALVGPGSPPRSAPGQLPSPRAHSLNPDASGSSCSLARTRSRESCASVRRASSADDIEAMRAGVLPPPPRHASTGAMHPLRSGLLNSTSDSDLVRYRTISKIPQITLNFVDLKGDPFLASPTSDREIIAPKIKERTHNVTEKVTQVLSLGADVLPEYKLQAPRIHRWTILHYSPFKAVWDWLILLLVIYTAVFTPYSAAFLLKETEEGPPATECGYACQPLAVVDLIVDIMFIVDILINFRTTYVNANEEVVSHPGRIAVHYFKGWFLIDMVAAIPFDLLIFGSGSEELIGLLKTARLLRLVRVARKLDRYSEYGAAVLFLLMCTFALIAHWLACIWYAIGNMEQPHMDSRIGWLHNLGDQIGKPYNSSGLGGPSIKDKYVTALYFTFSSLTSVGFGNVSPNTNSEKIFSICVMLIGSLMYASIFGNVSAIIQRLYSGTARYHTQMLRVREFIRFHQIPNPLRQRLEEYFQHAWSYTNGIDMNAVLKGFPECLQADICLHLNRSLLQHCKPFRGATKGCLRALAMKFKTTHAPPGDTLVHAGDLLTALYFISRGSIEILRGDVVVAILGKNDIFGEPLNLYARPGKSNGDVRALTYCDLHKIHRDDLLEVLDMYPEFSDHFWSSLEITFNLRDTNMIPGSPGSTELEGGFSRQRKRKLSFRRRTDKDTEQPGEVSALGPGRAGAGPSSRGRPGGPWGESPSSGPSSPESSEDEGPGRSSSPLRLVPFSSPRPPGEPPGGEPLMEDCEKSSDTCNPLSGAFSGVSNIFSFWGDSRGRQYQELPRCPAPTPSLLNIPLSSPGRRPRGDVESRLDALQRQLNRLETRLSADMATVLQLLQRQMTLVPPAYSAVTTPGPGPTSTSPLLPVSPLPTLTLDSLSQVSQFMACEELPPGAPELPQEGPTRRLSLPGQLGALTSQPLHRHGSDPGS", "assay": "primary screen, population patch clamp on CHO cells stably expressing hERG", "units": {"hERG current change (%, negative = inhibition) at 10uM": "%"}, "values": [
      {"smiles": "CCc1ccc(NC(=S)Nc2cccc(OC)c2)cc1", "hERG current change (%, negative = inhibition) at 10uM": 6.52},
      {"smiles": "Cc1ccc(-n2c(C3CC3c3ccc(Cl)cc3)n[nH]c2=S)cc1", "note": "(stereo not drawn)", "hERG current change (%, negative = inhibition) at 10uM": 9.71},
      {"smiles": "COc1ccc(N2C(=O)/C(=C\\c3ccco3)N=C2SCC(=O)NC(C)C)cc1Cl", "hERG current change (%, negative = inhibition) at 10uM": 4.42},
      {"smiles": "CCOC(=O)N1CCN(CC(=O)Nc2ccc(F)cc2)CC1", "hERG current change (%, negative = inhibition) at 10uM": -82},
      {"smiles": "OC1(c2ccccc2)Cc2cccc[n+]2C1c1ccccc1.[Br-]", "note": "(stereo not drawn)", "hERG current change (%, negative = inhibition) at 10uM": 11.6},
      {"smiles": "COc1ccc(C(=O)NCc2csc(-c3cccs3)n2)cc1", "hERG current change (%, negative = inhibition) at 10uM": -13.8},
      {"smiles": "CC1CCN(S(=O)(=O)c2cccc(C(=O)NC3CCCCC3)c2)CC1", "hERG current change (%, negative = inhibition) at 10uM": 5.82},
      {"smiles": "O=C(NCCCN1CCCC1=O)C1CCCO1", "note": "(stereo not drawn)", "hERG current change (%, negative = inhibition) at 10uM": 17.7},
      {"smiles": "CCN1CCc2nc3sc(C(=O)Nc4cccnc4Cl)c(N)c3cc2C1", "hERG current change (%, negative = inhibition) at 10uM": -13.6},
      {"smiles": "Cc1ccc(-c2nc(NC(=O)CSc3ncn[nH]3)ns2)cc1", "hERG current change (%, negative = inhibition) at 10uM": -14.3},
      {"smiles": "Cc1ccnc2nc(C(=O)OCC(=O)Nc3ccc([N+](=O)[O-])cc3Br)nn12", "hERG current change (%, negative = inhibition) at 10uM": -11.8},
      {"smiles": "O=C1CN(S(=O)(=O)c2ccccc2)CCN1S(=O)(=O)c1ccccc1", "hERG current change (%, negative = inhibition) at 10uM": 12.6},
      {"smiles": "N#Cc1ccc(CSc2nnc(NC(=O)c3ccc(=O)[nH]c3)s2)cc1", "hERG current change (%, negative = inhibition) at 10uM": 3.51},
      {"smiles": "CC(C)Oc1ccc(C(=O)N2CCCc3ccccc32)cc1", "hERG current change (%, negative = inhibition) at 10uM": -18.1},
      {"smiles": "CN(CC(=O)NCCc1ccccc1)S(=O)(=O)c1cccc2nsnc12", "hERG current change (%, negative = inhibition) at 10uM": -15.8},
      {"smiles": "COc1ccc2c(c1)CCc1sc(NC(=O)c3ccc(C)cc3)nc1-2", "hERG current change (%, negative = inhibition) at 10uM": 10.9},
      {"smiles": "CN(C)c1cccc(C(=O)Nc2ccc(N3CCOCC3)cc2)c1", "hERG current change (%, negative = inhibition) at 10uM": 2.06},
      {"smiles": "CCOC(=O)c1ccccc1NC(=O)CSc1nnc(COc2ccccc2C)n1C", "hERG current change (%, negative = inhibition) at 10uM": -48.6},
      {"smiles": "O=C(O)c1nn(CCOc2cccc(Br)c2)c(=O)c2ccccc12", "hERG current change (%, negative = inhibition) at 10uM": -14.4},
      {"smiles": "COc1ccc(C(=O)NNC(=O)Cc2ccc(Cl)cc2)cc1", "hERG current change (%, negative = inhibition) at 10uM": -8.42},
      {"smiles": "CCNC(=O)C(=O)NCC(c1ccc2c(c1)OCO2)N1CCOCC1", "note": "(stereo not drawn)", "hERG current change (%, negative = inhibition) at 10uM": 8.97},
      {"smiles": "O=C1CC(C2CCCO2)C(=O)N1c1ccccc1", "note": "(stereo not drawn)", "hERG current change (%, negative = inhibition) at 10uM": 11},
      {"smiles": "NCC1(CC(=O)O)CCCCC1", "hERG current change (%, negative = inhibition) at 10uM": 10.8},
      {"smiles": "COc1ccc(NC(=O)CC2SC(=Nc3ccccc3)NC2=O)c(OC)c1", "note": "(stereo not drawn)", "hERG current change (%, negative = inhibition) at 10uM": 4.43},
      {"smiles": "C/C(=N\\NC(=O)C1CC1c1ccccc1)c1cccs1", "note": "(stereo not drawn)", "hERG current change (%, negative = inhibition) at 10uM": -7.37},
      {"smiles": "COCCn1c(=S)[nH]c2cc(C(=O)N3CCN(c4cccc(Cl)c4)CC3)ccc2c1=O", "hERG current change (%, negative = inhibition) at 10uM": -47.8},
      {"smiles": "COC(=O)c1cc(S(=O)(=O)N2CCCCCC2)c[nH]1", "hERG current change (%, negative = inhibition) at 10uM": 0.97},
      {"smiles": "O=C(OCc1nc2ccsc2c(=O)[nH]1)c1ccco1", "hERG current change (%, negative = inhibition) at 10uM": 20.6},
      {"smiles": "COc1ccc(S(=O)(=O)N2CCN(Cc3ccccc3)CC2)cc1", "hERG current change (%, negative = inhibition) at 10uM": -19.5},
      {"smiles": "COc1ccc(-n2nc(C(=O)NCC(=O)NC3CCCCC3)c3ccccc3c2=O)c(OC)c1", "hERG current change (%, negative = inhibition) at 10uM": 10.5},
      {"smiles": "CN(C(=O)Nc1ccccc1)C1CCCCC1", "hERG current change (%, negative = inhibition) at 10uM": 10.2},
      {"smiles": "Cc1ccc(C(=O)ONC(=O)c2ccc(Cl)cc2)cc1[N+](=O)[O-]", "hERG current change (%, negative = inhibition) at 10uM": 2.37},
      {"smiles": "CCCc1cc(-c2n[nH]c(=S)n2CC)c2ccccc2n1", "hERG current change (%, negative = inhibition) at 10uM": 9.23},
      {"smiles": "CCOC(=O)CSc1nnc(NC(=O)c2cccc(S(=O)(=O)N3CCCC3)c2)s1", "hERG current change (%, negative = inhibition) at 10uM": 5.27},
      {"smiles": "CCCCNC(=O)CSc1ccc(S(=O)(=O)N2CCOCC2)cn1", "hERG current change (%, negative = inhibition) at 10uM": -2.1},
      {"smiles": "O=S(=O)(c1ccc(S(=O)(=O)N(Cc2cccs2)CC2CCCO2)cc1)N1CCCCC1", "note": "(stereo not drawn)", "hERG current change (%, negative = inhibition) at 10uM": -16.1},
      {"smiles": "CC(C)(C)n1nc2c(c1NC(=O)Cc1ccccc1)CS(=O)(=O)C2", "hERG current change (%, negative = inhibition) at 10uM": 16.1},
      {"smiles": "CN(C)S(=O)(=O)NCc1ccc2c(c1)OCO2", "hERG current change (%, negative = inhibition) at 10uM": 14.3},
      {"smiles": "COC(=O)N/N=C/c1ccc(-c2ccc(C)c(Cl)c2)o1", "hERG current change (%, negative = inhibition) at 10uM": -6.4},
      {"smiles": "Cc1cc(NC(=O)c2cc3ncc(Br)cn3n2)no1", "hERG current change (%, negative = inhibition) at 10uM": 20.3},
      {"smiles": "CC(=O)c1cccc(NC(=O)N2CCCC2C(=O)NCCc2ccccc2)c1", "note": "(stereo not drawn)", "hERG current change (%, negative = inhibition) at 10uM": -7.07},
      {"smiles": "Cc1ccc(C2(O)CN(c3ccccc3)C3=[N+]2CCS3)cc1.[Br-]", "note": "(stereo not drawn)", "hERG current change (%, negative = inhibition) at 10uM": -32.6},
      {"smiles": "Cc1cccn2cc(CNS(=O)(=O)c3ccc4ccccc4c3)nc12", "hERG current change (%, negative = inhibition) at 10uM": -16.1},
      {"smiles": "C=CCn1c(C)cc(C(=O)Cn2c(C(C)O)nc3ccccc32)c1C", "note": "(stereo not drawn)", "hERG current change (%, negative = inhibition) at 10uM": 12.4},
      {"smiles": "CC(C)COP(=O)(CNC(=O)CN1C(=O)c2ccccc2S1(=O)=O)OCC(C)C", "hERG current change (%, negative = inhibition) at 10uM": 16.7}
    ]}
  ]
}
